Assay results from the supplement of paper PMC12217912.
The list shows a part of the results. Sequences were assembled here from the parent chain. Inactive controls read about 0.05.

B1: TEV protease; numbered along this chain (parent)
chain: MGESLFKGPRDYNPISSSICHLTNESDGHTTSLYGIGFGPFIITNKHLFRRNNGTLVVQSLHGVFKVKDTTTLQQHLVDGRDMIIIRMPKDFPPFPQKLKFREPQREERICLVTTNFQTKSMSSMVSDTSCTFPSGDGIFWKHWIQTKDGQCGSPLVSTRDGFIVGIHSASNFTNTNNYFTSVPKNFMELLTNQEAQQWVSGWRLNADSVLWGGHKVFMVKPEEPFQPVKEATQL

Variants of: B1
Assay: raw area under fraction-flipped curve 0-4 h after induction (AUC4h, not background-subtracted), DNA-recorder readout of cleavage of the substrate (dimensionless); higher = more cleavage of the substrate by the protease variant
Conditions: temperature: 34 °C; time window: 0-4 h after rhamnose induction
Description: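 In vivo DNA recorder in E. coli TOP10(DE3) ΔrhaA at 34 °C. Each TEVp single-site mutant (parent TEVp 0) is paired with a single-site variant of the 7-mer TEVs (canonical ENLYFQ|S). The substrate sits between flexible linkers in a Bxb1-sfGFP-TEVs-SsrA fusion, so cleavage stabilises Bxb1 and speeds flipping of a recombination array, read by NGS. The value is the raw area under the fraction-flipped curve over 0-4 h after rhamnose induction (AUC4h), with ≥20 reads per time point. It is not background-subtracted; inactive controls average about 0.047.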
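Further: Bxb1 expression induced with 0.2% (w/v) L-rhamnose at OD600 near 0.5, cultures sampled hourly, flipped fraction per protease–substrate barcode pair counted by paired-end Illumina sequencing.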

Variant | area with substrate CNLYFQS | area with substrate DNLYFQS | area with substrate FNLYFQS | area with substrate GNLYFQS | area with substrate HNLYFQS | area with substrate KNLYFQS | area with substrate LNLYFQS | area with substrate MNLYFQS | area with substrate PNLYFQS | area with substrate SNLYFQS | area with substrate TNLYFQS | area with substrate VNLYFQS | area with substrate WNLYFQS | area with substrate YNLYFQS | area with substrate INLYFQS | area with substrate NNLYFQS | area with substrate RNLYFQS | area with substrate QNLYFQS
T44H | 0.0374 | 0.0517 | 0.0377 | 0.0465 | 0.0549 | 0.0632 | 0.0199 | 0.0488 | 0.0478 | 0.0508 | 0.0443 | 0.0505 | 0.0454 | 0.0531 | – | – | – | –
N45C | 0.0858 | 0.0694 | 0.0516 | – | 0.0797 | – | 0.0713 | 0.0562 | 0.0707 | – | 0.0739 | – | 0.0614 | 0.0625 | 0.074 | – | – | –
N45F | 0.0291 | 0.0737 | 0.0674 | 0.0638 | 0.0666 | 0.0671 | 0.0647 | 0.0486 | 0.0653 | 0.0631 | – | – | 0.059 | 0.0575 | 0.0577 | 0.0567 | – | –
N45M | 0.0483 | 0.0684 | 0.0696 | – | 0.0664 | 0.0535 | – | – | 0.0679 | 0.0431 | 0.0689 | – | 0.0614 | 0.0641 | – | 0.0645 | 0.0554 | –
N45R | 0.0608 | 0.0575 | 0.0603 | – | 0.0507 | 0.0464 | – | 0.0637 | 0.0536 | 0.0655 | 0.0517 | 0.0607 | 0.0734 | – | 0.0545 | 0.0559 | – | –
K46I | 0.0496 | 0.0586 | 0.0465 | 0.0692 | – | 0.0575 | 0.0526 | 0.0576 | 0.0597 | 0.0637 | 0.0522 | 0.0564 | 0.0523 | – | 0.0532 | 0.0672 | – | 0.0713
K46V | 0.0739 | 0.06 | – | – | – | 0.0498 | 0.0547 | – | – | – | 0.0516 | 0.0565 | 0.0559 | 0.0681 | 0.0575 | 0.0427 | – | 0.0668
K46W | 0.0533 | 0.0557 | 0.0586 | 0.0538 | 0.0448 | 0.0609 | 0.0531 | 0.0568 | 0.061 | 0.0568 | 0.0558 | 0.067 | 0.06 | 0.0518 | – | 0.0418 | – | 0.0841
H47M | 0.0589 | 0.066 | 0.0625 | 0.0582 | 0.0578 | – | 0.061 | – | 0.0465 | 0.0654 | 0.0585 | – | 0.0526 | 0.0359 | 0.0563 | 0.0683 | – | 0.0513
H47P | 0.0578 | 0.0566 | – | – | 0.0485 | 0.057 | – | 0.0504 | 0.0896 | 0.034 | 0.0631 | 0.06 | 0.0585 | 0.0388 | 0.0574 | 0.0694 | – | –
R50E | 0.0437 | 0.0791 | 0.0545 | 0.0589 | 0.0586 | 0.0613 | 0.0626 | 0.0806 | 0.0705 | 0.0528 | 0.0855 | 0.0682 | 0.0589 | – | 0.05 | 0.0539 | – | 0.0742
R51F | 0.0679 | 0.0899 | – | 0.069 | 0.0706 | – | – | – | 0.0753 | 0.0689 | – | – | 0.0681 | 0.0653 | 0.0678 | – | – | 0.0519
R51K | 0.072 | 0.0852 | 0.0404 | – | – | – | – | 0.0505 | – | 0.0538 | 0.0551 | – | 0.0607 | 0.0644 | – | – | – | –
N52D | 0.0557 | 0.0624 | – | – | 0.0626 | – | 0.0708 | – | 0.0595 | 0.0666 | 0.055 | 0.0717 | 0.0564 | 0.0792 | 0.0571 | 0.0541 | – | –
N52K | 0.0749 | 0.0377 | 0.05 | – | 0.0617 | 0.0748 | 0.0659 | – | 0.0613 | – | 0.0564 | – | 0.054 | 0.0343 | 0.062 | 0.0893 | – | –
G54S | 0.0469 | 0.0769 | – | 0.0582 | 0.0544 | 0.063 | 0.0565 | 0.0571 | 0.0585 | 0.058 | 0.0563 | 0.0791 | 0.0622 | 0.0456 | – | 0.0415 | – | –
T55F | 0.0844 | 0.0737 | – | – | 0.0668 | 0.0305 | – | – | 0.0698 | 0.0654 | 0.0626 | – | 0.0562 | 0.0698 | 0.0753 | – | 0.0549 | –
L56E | 0.034 | 0.0456 | – | 0.0571 | – | – | 0.036 | 0.0501 | – | – | 0.0529 | – | 0.0423 | – | 0.0474 | – | – | –
V58F | 0.0596 | 0.0734 | – | – | – | 0.0545 | 0.0653 | – | – | – | – | – | – | – | 0.0569 | 0.0583 | – | –
Q59F | 0.0714 | 0.0684 | 0.051 | – | 0.069 | – | 0.0408 | 0.0667 | 0.0617 | 0.0774 | 0.0585 | – | 0.0545 | 0.0575 | 0.0515 | 0.0682 | – | –
Q59M | 0.0584 | 0.0667 | 0.0622 | 0.0558 | 0.0641 | 0.0646 | 0.0629 | – | – | 0.0721 | 0.061 | – | 0.0558 | 0.0795 | – | 0.0512 | 0.0455 | 0.0542
S60M | 0.0681 | 0.0882 | 0.0614 | – | 0.0652 | 0.0635 | – | – | 0.0703 | – | 0.0727 | – | 0.0584 | 0.0649 | 0.0663 | 0.0687 | – | –
S60P | 0.0506 | 0.0639 | – | 0.037 | 0.0455 | 0.0524 | 0.0405 | 0.0666 | 0.0463 | – | 0.0524 | – | 0.0421 | 0.0498 | – | 0.0389 | – | 0.052
S60R | 0.0607 | 0.0888 | 0.0538 | 0.0687 | 0.0686 | 0.0624 | 0.0611 | – | 0.0643 | 0.0369 | 0.0447 | – | 0.053 | – | 0.0574 | 0.0678 | – | 0.04
L61E | 0.0759 | 0.0441 | – | – | 0.0693 | 0.0733 | 0.0553 | 0.0477 | 0.0742 | 0.0816 | 0.0632 | – | – | 0.0612 | 0.0576 | – | – | –
H62R | 0.0568 | 0.0775 | – | 0.0769 | 0.0648 | – | – | 0.0426 | – | – | 0.0848 | – | – | 0.0539 | 0.0635 | 0.0728 | – | –
H62S | 0.0729 | 0.0787 | 0.0571 | 0.0669 | 0.0692 | – | 0.0533 | 0.0615 | 0.0629 | – | 0.0732 | – | – | 0.062 | – | – | 0.0579 | 0.0736
H62W | 0.0665 | 0.0623 | – | 0.0798 | 0.0568 | – | 0.0678 | 0.0614 | 0.0794 | – | 0.0451 | 0.0657 | 0.0642 | 0.0543 | 0.0942 | 0.0976 | 0.0259 | –
